# Measured values reported in PubChem BioAssay AID624296 (National Center for Advancing Translational Sciences (NCATS), 2012).
# About 9,900 (2.8%) of roughly 350,000 compounds were called active. The inconclusive results got no clear call from the source; some entries with a clear call stand among them for comparison. Calls come from the whole dose curve; as a rule, active = well fitted activation curve with a large enough effect; inconclusive = small, poorly fitted or top-dose-only effect; inactive = no such curve, though single readings can be large or run the other way. No potency is given beside an inconclusive call; the fits are too rough.
# Assay: A quantitative high throughput screen for small molecules that induce DNA re-replication in MCF 10a normal breast cells. For activity, positive = re-replication: % of control where 0% means no effect. Note: nearly all actives have a fitted effect of over 50% in size.
# Settings: MCF 10A DNA re-replication, Hoechst nuclear intensity, 48 h; activity, positive = re-replication: at 46.1 µM (top of the series)
# Potency is the fitted concentration of half-maximal effect; tags give direction and shape of the fitted curve.
Structure (SMILES),Potency,"activity, positive = re-replication"
CC(C)c1ccccc1NC(=O)CNCCc1ccc(C(F)(F)F)cc1,"inconclusive [activator, single point]",–
CCCCC1=NN(C(=O)c2cocc2C)C(O)(C(F)(F)F)C1 (stereo not drawn),"inconclusive [activator, partial curve, poor fit]",–
COC(=O)c1sc(N2C(=O)c3oc4ccccc4c(=O)c3C2c2cccs2)nc1C (stereo not drawn),"inconclusive [activator, full curve]",–
Cc1ccc(S(=O)(=O)N2CCc3c2cc([N+](=O)[O-])cc3[N+](=O)[O-])cc1,"inconclusive [activator, single point]",–
OC1(c2cccnc2)CCN(Cc2nnnn2Cc2ccccc2)CC1,inactive,–
Cc1csc2c(N3CCN(C(=O)c4ccc(C(C)(C)C)cc4)CC3)ncnc12,"inconclusive [activator, partial curve, poor fit]",–
Nc1ccc(-c2n[nH]c(=O)c3ccccc23)cc1N,"inconclusive [activator, full curve, poor fit]",–
Cc1cc(N/N=C/c2cccc(F)c2)nc(NCc2ccccc2)n1,"inconclusive [activator, single point]",–
Cc1nn(-c2cccc(Cl)c2)c(Cl)c1/C=N/NC(=O)c1cccnc1,"inconclusive [activator, single point]",–
O=C(/C=C/c1ccc(Cl)c([N+](=O)[O-])c1)c1ccc(O)cc1,"inconclusive [activator, single point]",–
O=C(CSc1nc2[nH]c(=O)cc(O)c2s1)Nc1ccc(Br)cc1,"inconclusive [activator, full curve, poor fit]",–
O=C(COC(=O)C1CCN(C(=O)c2ccc(Cl)cc2)CC1)Nc1ccccc1F,inactive,–
Cc1ccccc1CNC(=O)c1ccccc1N(C)S(=O)(=O)c1ccccc1,"inconclusive [activator, single point]",–
O=C(NCCC(=O)N1CCN(S(=O)(=O)c2ccc(Cl)cc2)CC1)Nc1ccccc1,inactive,–
Cc1onc(-c2ccccc2Cl)c1C(=O)OCc1cnc(Cl)s1,active: 23.1 µM,–
CCOc1ccc2nc(N(CCN(C)C)C(=O)c3cc4ccccc4cc3OC)sc2c1,inactive,–
Nc1ncnc(Sc2ccc(Cl)cc2)c1[N+](=O)[O-],"inconclusive [activator, partial curve, poor fit]",–
CN(C(=O)COC(=O)/C=C/c1ccc2ccccc2n1)C1CCS(=O)(=O)C1 (stereo not drawn),"inconclusive [activator, single point]",–
CCN(CC)C(=O)Oc1ccc2cc(Br)ccc2c1,inactive,–
O=C(N/N=C/c1ccco1)c1cc(-c2ccc(Cl)cc2)n[nH]1,"inconclusive [activator, full curve, poor fit]",–
CC(C)n1nc(C(=O)Nc2ccccc2N2CCOCC2)c2ccccc2c1=O,"inconclusive [activator, partial curve, poor fit]",–
CCOc1ccccc1CNc1ccc(O)cc1,"inconclusive [activator, single point]",–

Structure (SMILES),Potency,"activity, positive = re-replication"
CCOC(=O)N1CCC(NC(=O)CC2C(=O)NCCN2Cc2cccc(F)c2F)CC1 (stereo not drawn),"inconclusive [activator, single point]",–
Cc1ccc(C)c(OCc2nnc(N)s2)c1,–,inconclusive: 123% [activator]
O=C(Cc1ccc(F)cc1)NC1CCCCCC1,inactive,–
O=C(CCn1cnc2ccccc21)N/N=C/c1ccc(O)cc1,inactive,–
O=C(Nc1ccc(Oc2ccc3ccccc3c2)cc1)c1ccco1,"inconclusive [activator, single point]",–
Cc1ccc(NC(=O)CN(C)C(=O)CCSc2ccc(F)cc2)cc1,inactive,–
Cc1cccn2c(=O)c3cc(C#N)c(=NC(=O)c4cccnc4)n(CC4CCCO4)c3nc12 (stereo not drawn),active: 13 µM,–
COc1ccccc1NC(=O)Nc1cc(NC(=O)Nc2ccccc2OC)c(C)nc1C,"inconclusive [activator, single point]",–
CC(C)N(C(=O)COC(=O)c1ccc([N+](=O)[O-])cc1)c1ccccc1,"inconclusive [activator, partial curve, poor fit]",–
O=C(Nc1ccccc1C(=O)NC(Cc1ccccc1)C(=O)NC1CCCCCC1)c1ccccc1 (stereo not drawn),"inconclusive [activator, single point]",–
O=C(CCN1C(=O)c2ccccc2S1(=O)=O)N1CCN(c2ccc(F)cc2)CC1,inactive,–
O=C(CNC(=O)c1ccco1)Nc1ccc(F)c(Cl)c1,"inconclusive [activator, single point]",–
O=C1CC(N2CCC(O)(c3ccc(Br)cc3)CC2)C(=O)N1c1ccc(Cl)cc1 (stereo not drawn),inactive,–
Cc1ccc(Cn2ccc(NC(=O)CCSc3nc(-c4ccco4)cc(C(F)(F)F)n3)n2)cc1,"inconclusive [activator, single point]",–
Cc1cccc(N(Cc2ccccc2)C(=O)c2ccc(S(C)(=O)=O)cc2)c1,inactive,–
CC1CCCC(NC(=O)COC(=O)c2cc3ccccc3oc2=O)C1C (stereo not drawn),inactive,–
CC(C)CC(NS(=O)(=O)OCC(Cl)(Cl)Cl)c1ccccc1 (stereo not drawn),"inconclusive [activator, single point]",–
Cc1ccc2c(c1)[C@H]1[C@H](CO2)[C@H](c2ccccc2)[C@]2(C)C(=O)Nc3ccccc3C(=O)N12,active: 3.26 µM,–
CN(C(=O)COC(=O)CCCc1c[nH]c2ccccc12)c1c(N)n(Cc2ccccc2)c(=O)[nH]c1=O,"inconclusive [activator, partial curve, poor fit]",–
COc1ccccc1N1CCN(C2CCCN(C(=O)c3cccc(-c4ccco4)c3)C2)CC1 (stereo not drawn),"inconclusive [activator, partial curve, poor fit]",–
Cc1ccc(/C=N/NC(=O)CSc2nc3nc(C)cc(C)n3n2)cc1,"inconclusive [activator, single point]",–
